Experimental findings from the RNAGym collection of RNA variant scans (doi:10.7554/elife.90254) are described below.

B1: LINE1-mini (parent)
chain: GGCAGAGCUCAACACAGCGUGGCAAAGUGGCUGUGGCUAGACUGCC

The source gives no read counts; variants with many changes may rest on few reads.

Variants of B1 are the subject of this series. The series is described as follows: self-cleavage, relative activity (ratio to wild type); higher = more cleavage; in vitro, sequencing; the parent is a self-cleaving ribozyme.
On to GGCAGAGCUGAACACAGCGUGCCAAAGUGGCUGCGGCUAGACUGCC [C10G G22C U34C], for which the self-cleavage came out at 0.03. As for GGCAGAGCUUACGACAGCGUGGCAAAUUGGAUGUGGCUAGACUGCC [C10U A12C C13G G27U C31A], the self-cleavage was 0.02. The value for GGCAGAGCUGAACACAGCGAGGCAAAGUGGAUGUGGCUAGCUUGCC [C10G U20A C31A A41C C42U] was 0; that for GGCAGAGCUUCACACAGGAUGGCAAAAUGGCUGUGGCUAGACUGCC [C10U A11C C18G G19A G27A] was 0.04. The value for GGCAGAGCUGAACACAGCGUUGCAAAGUGUCUGUGGCUAGUCUGCC [C10G G21U G30U A41U] was 0.04; that for GGCAGAGCUGAACACAGCGUGCCUAAGUGGCUGUGGCUAGACUGCC [C10G G22C A24U] was 0.06; that for GGCAGAGCUUUACACAGCGUGGCAAAGUGAUUGUGGCUAGACUGCA [C10U A11U G30A C31U C46A] was 0.01. For the variant GGCAGAGCUUGACACAGCGUGGCAAAGUGGCUUGGGCUAGACUGCC [C10U A11G G33U U34G], the self-cleavage worked out at 0.02.

As to GGCAGAGCUGAACACAGCGUGGCAAAGGGGCUGUAGCUAGACUGCC [C10G U28G G35A], the self-cleavage amounted to 0.04. For the variant GGCAGAGCUGAACACAGCGUGGCAAAGUCGGUGUGGCUAGACUGCC [C10G G29C C31G], the self-cleavage came to 0.02. With GGCAGAGCUGAACACAGCUUGGCAAAGUGGCUGUGGCUAGACCGCC [C10G G19U U43C], the self-cleavage came out at 0.03. In the case of GGCAGAGCUGAACACAGCGUGGCAAAGUAGCUAUGGCUAGAAUGUA [C10G G29A G33A C42A C45U C46A] it was 0.01; in that of GGCAGAGCUGAACACAGCGAGGCAAAGUGGCUGUGGCUAAACUGCC [C10G U20A G40A], 0.01; in that of GGCAGAGCUGAACACAGCGUGGCAAAGUGGCUGUAUCUAGACUGCC [C10G G35A G36U], 0.02. As to GGCAGAGCUGAACACAGCCUGGCAAAGUGGCUGUGGCUAGACUACC [C10G G19C G44A], the self-cleavage worked out at 0.04. In the case of GGCAGAGCUGAACACAGCGUGGCAAAGUACCUAUGGCUAGACUGUC [C10G G29A G30C G33A C45U], the self-cleavage stood at 0.03. For GGCAGAGCUGAACACAUCGUGUCAGAGUGGCUGUGGCUACACUGCC [C10G G17U G22U A25G G40C], the self-cleavage was found to be 0.01. In the case of GGCAGAGCUGAACACAGCCUGGCCAAGUGGCUGUGGCUAGACUACC [C10G G19C A24C G44A], the self-cleavage was 0.01. The value for GGCAGAGCUGAACACAGCGUGGCAAAGUUGCUGUGUCUAGACUGCC [C10G G29U G36U] was 0.02; that for GGCAGAGCUUACCACAGCGUGGCAAAGUGGUUAUGUCUAGACUGCC [C10U A12C C31U G33A G36U] was 0.01; that for GGCAGAGCUGAACACAGCGUGGCAAAGUAGCUGUGGCUAGAUUGCC [C10G G29A C42U] was 0.06. The value for GGCAGAGCUGAACACAGCGUGGCAAAGUUGCUGUGGCUAGACUCAC [C10G G29U G44C C45A] was 0.01; that for GGCAGAGCUUACCACAGAGUGGCAAAGUGGAUGUGGCUAGACUGCC [C10U A12C C18A C31A] was 0.06; that for GGCAGAGCUGAACACAGCGUGGCAAAACGGCCGUGGCAAGACGGCC [C10G G27A U28C U32C U38A U43G] was 0.

Take GGCAGAGCUGAACACAGCGGGGCAAAGUGGCUGUGGCUAGACUGCU [C10G U20G C46U]: the self-cleavage amounted to 0.04. The value for GGCAGAGCUGAACACAGCGUGGCAAAGGGGCUAUCGCUAGACUGCC [C10G U28G G33A G35C] was 0.02; that for GGCAGAGCUUUACACAGCUUGGCAAAGAGGCUGUGGCUAGACUGCC [C10U A11U G19U U28A] was 0.08; that for GGCAGAGCUGAACACAGCGUGGCAAAUUGGCUGUGGCUAGACUACC [C10G G27U G44A] was 0.03. The value for GGCAGAGCUGAACACAGCGUGGCAAAGUGGCUGUGGCUAAAUUGCC [C10G G40A C42U] was 0.01. In the case of GGCAGAGCUGAACACAUCGUGGCAAAGUGGCUAUGGCUAGACUGCU [C10G G17U G33A C46U], the self-cleavage was 0.03. As to GGCAGAGCUGAACACAGCGUGCCAAAGUGGCUCUGACUAGGCUGCC [C10G G22C G33C G36A A41G], the self-cleavage was found to be 0.02. In the case of GGCAGAGCUGAACACAGCGGGGCAAAGUGACUGUGGCUAGACUGCC [C10G U20G G30A], the self-cleavage was 0.08.

With GGCAGAGCUGAACACAGCUUUGCAAAGUGGCUGUGGCUAGACUGCC [C10G G19U G21U], the self-cleavage was determined as 0.03.

As for GGCAGAGCUGAACACAGCGUGUCAAAGUGGCUGUGGCUGGACUCCC [C10G G22U A39G G44C], the self-cleavage is 0.01.

In the case of GGCAGAGCUUCACACAGCAUGGCAAAGUGGCUUUGGCUAGACUUCC [C10U A11C G19A G33U G44U], the self-cleavage was 0.01. Turning to GGCAGAGCUGAACACAGCGUGCUAAAGUGGCUGUGGCUAAACUGCC [C10G G22C C23U G40A], the self-cleavage was found to be 0.01. Consider GGCAGAGCUGAACACAGCGUCGCAAAGUGGCUAUGGCUAGACUGCC [C10G G21C G33A], for which the self-cleavage was found to be 0.04. With GGCAGAGCUGAACACAGCGUGUCAAAGUGGCUGAGGCUAGACUGCC [C10G G22U U34A], the self-cleavage was determined as 0.02. The value for GGCAGAGCUGAACACAGCGUGGCAAAGAUGCUGUGGCUUGACUGCC [C10G U28A G29U A39U] was 0.05. In the case of GGCAGAGCUGAACACAGCGAGGCAAUGUGGCUGUGGCUAGACUGCC [C10G U20A A26U] it was 0.05; in that of GGCAGAGCUGAACACAGCGCGGCAUAGUGGCUGUGGCUAGACUGCC [C10G U20C A25U], 0.06; in that of GGCAGAGCUUACCACAGCGUGGCAAAAUGGCUGUGGCUAGACUGCC [C10U A12C G27A], 0.02. In the case of GGCAGAGCUGAACACAGCGCGGCAAAGUGGCUGUGGCCAAACUGCC [C10G U20C U38C G40A] it was 0.01.

Turning to GGCAGAGCUGAACACAGCGUGGCAAAGGGGCUGUGGCUAGACUGUC [C10G U28G C45U], the self-cleavage was 0.13.

On to GGCAGAGCUGAACACAGCAGGGCAAAGUGGCUGUGGCUAGACUGCC [C10G G19A U20G], for which the self-cleavage came to 0.06. For GGCAGAGCUGAACACAGCGUGGCAAAGUGGCUGUAGCUAUACGGCC [C10G G35A G40U U43G], the self-cleavage amounted to 0.

GGCAGAGCUGAACACAGCGGGGCAAAGUGGCUGUGGAUAGACUGCC [C10G U20G C37A]: the self-cleavage was found to be 0. In the case of GGCAGAGCUUACAACAGCGUGGCAAAGUGGCUGUGGCUACACUGCC [C10U A12C C13A G40C] it was 0.04; in that of GGCAGAGCUUCACACAGCGUGGCAAAGUGGCUGUGGCUAGACCGCC [C10U A11C U43C], 0.06; in that of GGCAGAGCUGAACACAGCGUGUCAAAGUGGCUGUGGCUAGACUACC [C10G G22U G44A], 0.06. For GGCAGAGCUUGACACAGCGCGGCAAAGUCGCUGUGGCUAGACUGCC [C10U A11G U20C G29C], the self-cleavage is 0.01. The value for GGCAGAGCUGAACACAGCAUGGCAAAGUGGCUGUGGCUAAACCGCC [C10G G19A G40A U43C] was 0.01.

As to GGCAGAGCUGAACACAGCGUGGCAAAGGGGCUGUGGCUGGACUGCC [C10G U28G A39G], the self-cleavage was 0. The value for GGCAGAGCUGAACACAGCGUGGCAAAGUGGCUUUGGCUGGACUGCC [C10G G33U A39G] was 0.01; that for GGCAGAGCUGAACACAGCGUGGCAAAGCGGCUGGGGCUAGACUGCC [C10G U28C U34G] was 0.03.

Turning to GGCAGAGCUGAACACAGCGUGGCAAAGUGGCUGUCGCUAGAUUGCC [C10G G35C C42U], the self-cleavage worked out at 0.01.
